The IC50 comes from the fitted curve, where viability falls to half of the control; a fit beyond the top or the lowest dose is shown as a bound at that dose. For AUC the same curve is integrated over the 256-fold range of doses and scaled to a fraction; values near 1 show little effect. For some of these results: A top dose marked as inferred is not printed in the source and was worked back from the curve model.
Tests used:
Experiment in all cases: Viability of human cancer cell lines after 72 h of drug (GDSC screen)
MS-275 = compound: Nc1ccccc1NC(=O)c1ccc(CNC(=O)OCc2cccnc2)cc1 [MS-275]; details: top dose 5 µM; top dose inferred
Experimental: (§1)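 Human cancer cell lines in 384-well plates, medium with 10% serum, drug for 72 h over a 256-fold dose range (nine 2-fold or five 4-fold steps up to the top dose). Adherent lines were fixed and stained with the nucleic acid dye Syto60, suspension lines read with resazurin; signal relative to control wells, capped at 0 and 100%. One two-parameter sigmoid per drug and line, fitted in a mixed model over all curves with the slope shared within a line.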

KIN001-244 = compound: O=C(NC(COc1ccc2[nH]c(=O)[nH]c2c1)c1ccccc1)c1cccn(Cc2ccc(F)c(F)c2)c1=O [KIN001-244]; details: top dose 20 µM; top dose inferred
Experimental: as §1

PF-4708671 = compound: CCc1cncnc1N1CCN(Cc2nc3ccc(C(F)(F)F)cc3[nH]2)CC1 [PF-4708671]; details: top dose 10 µM; top dose inferred
Experimental: as §1

I-BET-762 = compound: CCNC(=O)C[C@@H]1N=C(c2ccc(Cl)cc2)c2cc(OC)ccc2-n2c(C)nnc21 [I-BET-762]; details: top dose 20 µM; top dose inferred
Experimental: as §1

HG-6-64-1 = compound: CCN1CCN(Cc2ccc(NC(=O)c3ccc(C)c(/C=C/c4cnc5[nH]ccc5c4OC)c3)cc2C(F)(F)F)CC1 [HG-6-64-1]; details: top dose 5.12 µM; top dose inferred
Experimental: as §1

AV-951 = compound: COc1cc2nccc(Oc3ccc(NC(=O)Nc4cc(C)on4)c(Cl)c3)c2cc1OC [AV-951]; details: top dose 0.128 µM; top dose inferred
Experimental: as §1

Trametinib = compound: CC(=O)Nc1cccc(-n2c(=O)n(C3CC3)c(=O)c3c(Nc4ccc(I)cc4F)n(C)c(=O)c(C)c32)c1 [Trametinib]; details: top dose 1 µM
Experimental: as §1

Cell Line	AUC (MS-275)	IC50 (MS-275) [µM]	AUC (KIN001-244)	IC50 (KIN001-244) [µM]	AUC (PF-4708671)	IC50 (PF-4708671) [µM]	AUC (I-BET-762)	IC50 (I-BET-762) [µM]	AUC (HG-6-64-1)	IC50 (HG-6-64-1) [µM]	AUC (AV-951)	IC50 (AV-951) [µM]	AUC (Trametinib)	IC50 (Trametinib) [µM]
TE-6 (oesophagus, adherent)	0.944	> 5	0.869	> 20	0.927	> 10	0.918	> 20	0.906	> 5.12	0.986	> 0.128	0.953	> 1
TE-8 (oesophagus, adherent)	0.552	0.437	0.887	> 20	0.873	> 10	0.977	> 20	0.858	4.69	0.985	> 0.128	0.474	0.0527
TE-9 (oesophagus, adherent)	0.761	–	0.906	> 20	0.916	> 10	0.975	> 20	0.565	0.485	0.981	> 0.128	0.935	> 1
TE-10 (oesophagus, adherent)	0.881	> 5	0.889	> 20	0.948	> 10	0.973	> 20	0.749	1.63	0.987	> 0.128	0.801	0.477
TE-12 (oesophagus, suspension)	0.827	4	0.848	> 20	0.953	> 10	0.978	> 20	0.737	1.8	0.981	> 0.128	0.586	0.113
TE-15 (oesophagus, suspension)	0.875	> 5	0.756	7.63	0.893	> 10	0.883	> 20	0.56	0.476	0.984	> 0.128	0.865	> 1
TGW (neuroblastoma, adherent)	0.71	1.1	0.835	10.7	0.99	> 10	0.846	11.7	0.955	> 5.12	0.991	> 0.128	0.978	> 1
TK10 (kidney, adherent)	0.733	1.69	0.761	8.49	0.963	> 10	0.981	> 20	0.901	> 5.12	0.979	> 0.128	0.553	0.0901
TK (B-cell lymphoma, suspension)	0.83	2.76	0.787	7.89	0.922	> 10	0.922	> 20	0.855	3.54	0.979	> 0.128	0.979	> 1
TUR (B-cell lymphoma, suspension)	0.958	> 5	0.803	9.06	0.945	> 10	0.899	> 20	0.897	> 5.12	0.984	> 0.128	0.897	> 1

From the supplement of paper PMC4967469
